# From article PMC4336329 (PLoS ONE, 2015)
# In all, about 310,000 compounds went through this assay and about 2,200 (0.71%) showed an effect of 50% or more. Effects have a minus sign here. Some of the results follow.
# Molecular target: human ether-à-go-go-related gene (hERG) potassium channel (human, UniProt Q12809)
# Test: primary screen, population patch clamp on CHO cells stably expressing hERG
# human ether-à-go-go-related gene (hERG) potassium channel, sequence (Q12809 whole entry, looked up): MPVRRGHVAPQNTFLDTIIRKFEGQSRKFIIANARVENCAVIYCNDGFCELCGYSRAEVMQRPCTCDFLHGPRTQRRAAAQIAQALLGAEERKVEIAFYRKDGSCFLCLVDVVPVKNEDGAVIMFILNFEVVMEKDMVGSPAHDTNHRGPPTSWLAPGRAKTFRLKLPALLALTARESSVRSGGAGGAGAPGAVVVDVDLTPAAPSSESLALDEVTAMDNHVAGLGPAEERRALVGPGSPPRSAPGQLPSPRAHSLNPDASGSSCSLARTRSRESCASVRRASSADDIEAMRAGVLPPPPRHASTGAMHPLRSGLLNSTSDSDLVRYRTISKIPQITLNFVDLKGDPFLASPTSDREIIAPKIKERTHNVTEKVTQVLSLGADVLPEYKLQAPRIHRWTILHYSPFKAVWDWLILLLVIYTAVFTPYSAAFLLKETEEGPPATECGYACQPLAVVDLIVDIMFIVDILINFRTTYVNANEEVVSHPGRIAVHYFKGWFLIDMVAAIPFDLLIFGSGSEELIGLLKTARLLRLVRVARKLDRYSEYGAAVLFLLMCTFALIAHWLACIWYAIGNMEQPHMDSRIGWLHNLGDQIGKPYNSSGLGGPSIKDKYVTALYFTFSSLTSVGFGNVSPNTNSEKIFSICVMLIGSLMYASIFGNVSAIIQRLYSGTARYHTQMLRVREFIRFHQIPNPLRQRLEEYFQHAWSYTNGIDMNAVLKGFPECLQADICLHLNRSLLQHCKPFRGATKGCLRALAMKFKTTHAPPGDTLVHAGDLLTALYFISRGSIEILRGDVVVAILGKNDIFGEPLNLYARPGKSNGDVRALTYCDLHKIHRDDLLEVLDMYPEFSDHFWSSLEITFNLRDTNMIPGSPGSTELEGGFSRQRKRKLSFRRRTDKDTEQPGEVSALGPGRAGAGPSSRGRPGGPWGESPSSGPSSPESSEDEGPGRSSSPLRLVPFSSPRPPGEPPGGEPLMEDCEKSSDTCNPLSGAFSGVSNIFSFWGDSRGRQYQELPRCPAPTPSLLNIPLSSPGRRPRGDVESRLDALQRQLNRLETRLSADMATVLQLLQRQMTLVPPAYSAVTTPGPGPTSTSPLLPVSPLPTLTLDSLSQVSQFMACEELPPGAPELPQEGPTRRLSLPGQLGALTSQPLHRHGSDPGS
row,SMILES,"hERG current change (%, negative = inhibition) at 1uM [%]"
1,CN(C)CCOCCOc1ccc(Cl)cc1Br.O=C(O)C(=O)O,-1.15
2,CC(=O)N1c2ccc(S(=O)(=O)N3CCCCC3)cc2CC1C(=O)Nc1cccc(C)c1 (stereo not shown),19.1
3,Cc1ccc(S(=O)(=O)Cc2cc(-c3ccc(Cl)cc3)no2)cc1,13.9
4,O=C(c1ccccc1)c1cccn1CC(=O)N1CCN(c2ccccc2)CC1,10.7
5,Cc1cc(C(=O)CN2C(=O)c3ccccc3C2=O)c(C)n1Cc1cccs1,9.88
6,O=C(Nc1nnc(C(F)(F)F)s1)c1cccnc1,13
7,CCOc1ccccc1NC(=O)CCc1nnc2ccc(N3CCC(C)CC3)nn12,-1.93
8,COC(=O)c1cc(S(=O)(=O)N2CCN(c3ccc(OC)cc3)CC2)cn1C,16.7
9,CC(=O)Nc1cc2c(cc1C(=O)C(C)C)OCCO2,0.916
10,CCc1nnc(NC(=O)CSc2nnc(-c3ccccc3O)n2CC)s1,-2.15
11,O=C(NN=C1CCCCCCCCCCC1)c1cccnc1,3.23
12,CCOc1ccc(N2CC(C(=O)NCCCN3CCOCC3)CC2=O)cc1 (stereo not shown),-4.41
13,CCCCNC(=O)C1c2cc(OC)c(OC)cc2C(=O)N(C)C1c1cccs1 (stereo not shown),-0.594
14,CC(C)CC(=O)Nc1ccc([N+](=O)[O-])cc1Cl,8.2
15,COc1cccc(N=Cc2c(O)n(-c3cccc(C)n3)c(=O)c3ccccc23)c1,6.9
16,COc1ccc(N(CC(=O)Nc2ccc(C)c(C)c2)S(=O)(=O)c2c(C)n[nH]c2C)cc1,14.5
17,Cc1cc(C(=O)N2CCCC(N3CCN(c4cccc(C(F)(F)F)c4)CC3)C2)n[nH]1 (stereo not shown),-25.5
18,COc1ccccc1OCc1ccc(C(=O)NCC2CCCO2)o1 (stereo not shown),2.68
19,NC(=O)c1ccccc1OCCOCCOCCOc1ccccc1C(N)=O,-7.98
20,COc1ccc(C2CC(c3cccs3)=NN2c2ccc(C=O)cc2)cc1 (stereo not shown),6.16
21,COc1cc(C(O)c2nc3ccccc3n2C)cc(OC)c1OC (stereo not shown),1.48
22,O=C(COC(=O)CNC(=O)c1cccc([N+](=O)[O-])c1)Nc1cccc(S(=O)(=O)N2CCCC2)c1,15.3

row,SMILES,"hERG current change (%, negative = inhibition) at 1uM [%]"
1,CC(=O)N1C(=O)C2(Nc3ccccc3N2)c2ccccc21,14
2,Cc1ccc(/C=C2/SC(=S)N(CCCC(=O)Nc3cc([N+](=O)[O-])ccc3O)C2=O)cc1,14.2
3,CCOC(=O)CN(C)S(=O)(=O)c1ccc(-c2cc(C(=O)OC)sc2C(F)(F)F)cc1,10.7
4,O=C(Nc1cc(S(=O)(=O)N2CCCCC2)ccc1N1CCOCC1)c1cc(=O)[nH]c2ccccc12,16.8
5,Cc1[nH]nc2c1C(c1ccsc1)C(C#N)=C(N)O2 (stereo not shown),13.7
6,Cc1nnc(N2C(=O)C(O)=C(C(=O)c3ccco3)C2c2cccc3ccccc23)s1 (stereo not shown),4.71
7,O=C1OC(Nc2ccc(F)cc2F)c2ccccc21 (stereo not shown),8.3
8,Cc1noc(C)c1S(=O)(=O)N1CCCN(C(=O)/C=C/c2ccccc2F)CC1,-31.2
9,O=C(CSc1nc2c(cnn2-c2ccc(F)cc2)c(=O)[nH]1)N1CCOCC1,7.21
10,COc1cccc(/C=N/n2c(N)c(S(=O)(=O)c3cccs3)c3nc4ccccc4nc32)c1OC,9
11,CC(CNc1ccc([N+](=O)[O-])cc1)NC(=O)c1ccccc1Br (stereo not shown),-25.9
12,Cc1ccc(-c2ccc(/C=N/n3cnnc3)o2)cc1Cl,7.15
13,CNC(=S)N=Nc1c(O)[nH]c2ccccc12,4.56
14,Cc1ccccc1OCC(=O)O/N=C(\N)c1ccncc1,11.6
15,Cc1cccc(C(=O)OCC(=O)NC(C)CCc2ccccc2)c1O (stereo not shown),4.34
16,CN1CCc2c(sc3nc(NN)n(-c4ccc(Cl)cc4)c(=O)c23)C1,14.9
17,O=C1CC(NS(=O)(=O)c2cccs2)CN1c1ccc(F)cc1 (stereo not shown),13.9
18,CC(C)N(C)C(=O)c1ccc(OC2CCN(CCc3ccccc3)CC2)cc1,2.05
19,CCc1ccccc1NC(=O)N1CCc2ccccc21,5.07
20,CC1=CC(C)(C)NC(=S)N1c1ccccc1,13.6
21,CCNc1ccc(S(=O)(=O)N(C)C)cc1NCC(=O)Nc1ccc(F)c(Cl)c1,4.45
22,CC(C)c1c(C(=O)N/N=C/c2ccsc2)nnn1-c1nonc1N,19.6

row,SMILES,"hERG current change (%, negative = inhibition) at 1uM [%]"
1,CCCCC1=CC2=CC(=O)C(C)(OC(=O)CC)C(=O)C2=CN1C1CCCC1 (stereo not shown),-21.6
2,O=S(=O)(NC1CCCCCC1)c1ccc(Br)s1,4.06
3,CC1CCCN(Cc2nc3c(c(=O)n(C)c(=O)n3C)n2CCc2ccccc2)C1 (stereo not shown),0.562
4,CC(C)NC(=O)c1onc(CSc2ccc(F)cc2)c1C(=O)NC(C)C,9.57
5,CCN1CCN(C(=O)C2CCN(S(=O)(=O)c3ccc4c(c3)NC(=O)C(C)S4)CC2)CC1 (stereo not shown),5.28
6,COc1ccc(OC)c(Nc2nnc(C)c(=O)[nH]2)c1,11.5
7,CSCCC(NS(=O)(=O)c1ccccc1F)C(=O)Nc1ccncc1 (stereo not shown),2.97
8,Cc1nn(-c2ccccc2)c(Cl)c1/C=N/NC(=O)c1ccn[nH]1,5.25
9,CN(C)C1(CNC(=O)Nc2ccc(Cl)c(Cl)c2)CCCCC1,3.77
10,COc1ccc2c(c1)C(SCC(=O)NCCc1ccccc1)CC(C)(C)O2 (stereo not shown),2.65
11,CC(C)C[C@H](NC(=O)N1CCn2c1nc1ccccc12)C(=O)N[C@@H](C(=O)O)c1ccccc1,-12.4
12,Cc1csc(SCC(=O)NCc2ccccc2)n1,3.8
13,COc1cc(C(=O)Nc2cccc(-c3nc4ncccc4o3)c2C)cc(OC)c1OC,6.28
14,COC(=O)C1=CO[C@@H](O[C@@H]2O[C@H](CO)[C@@H](O)[C@H](O)[C@H]2O)C2C1C[C@H](O)[C@@H]2C (stereo partly shown),12.2
15,COc1ccc(S(=O)(=O)N2CCN(C)CC2)cc1,6.17
16,CCc1cccc(CC)c1N(COC)C(=O)Cn1cnc2ccccc21,6.19
17,CC1CCCCN1C(=O)Cc1ccc(Cl)cc1 (stereo not shown),-7.41
18,CC1CCCCN1C(=O)CSc1nnc(-c2ccco2)n1CC1CCCO1 (stereo not shown),12
19,COc1ccc(-c2cc3ccccc3n2CC(O)CN2CCN(CCO)CC2)cc1 (stereo not shown),-7.99
20,Cc1nn(C(=O)c2cccs2)c(N)c1-c1ccccc1,8.56
21,Fc1ccc(C2=Nn3c(Cc4ccccc4)nnc3SC2)cc1,-5.44
22,O=C(NC1CCCCC1)c1cccc(S(=O)(=O)N2CCOCC2)c1,4.35

row,SMILES,"hERG current change (%, negative = inhibition) at 1uM [%]"
1,COc1ccc(/C=C(\NC(=O)c2ccc(C)cc2)C(=O)Nc2c(C)n(C)n(-c3ccccc3)c2=O)cc1,7.24
2,CCN1CCC[C@H]1CNC(=O)c1c(O)c(Cl)cc(Cl)c1OC,1.41
3,O=C1CCN(C(=O)C(Cl)Cl)N1,10.7
4,C/C(=C\C(=O)OCC(=O)NCc1ccccc1)C(=O)OCC(=O)NCc1ccccc1,13
5,COCCCn1c(=O)c2sccc2n(Cc2cccc(C)c2)c1=O,14.3
6,CCN(CC)C(=O)COc1coc(CN2CCN(Cc3ccccc3)CC2)cc1=O,8.33
7,Cc1ccc(NC(=O)c2cc(-c3ccc(C)c(C)c3O)n[nH]2)cc1C,14
8,COc1ccccc1CNC(=O)C1COc2ccccc2O1 (stereo not shown),2.38
9,COc1cc(CN(C(=O)c2cccs2)C2CCS(=O)(=O)C2)cc(OC)c1OC (stereo not shown),14.7
10,c1ccc(-c2ccc(CN3C[C@@H]4C(c5ccccc5)C5(c6cccnc6)CC4(C5)[C@H]3c3ccccc3)cc2)cc1 (stereo partly shown),6.14
11,O=C(Cn1cnc2ccccc2c1=O)NCCC(=O)N1CCN(c2ccccc2)CC1,2.77
12,CCOc1ccccc1NC(=O)NCc1cccnc1,10.5
13,CCCC(=O)N1CCc2[nH]c3ccccc3c2C1,9.1
14,Cc1ccc(C(=O)Oc2ccc(Cl)c3cccnc23)cc1[N+](=O)[O-],15
15,CC1(C)CC(=O)C2=C(C1)NC(=O)NC2c1ccc(Cl)cc1 (stereo not shown),18.9
16,CCN(C(=O)COC(=O)/C=C/c1ccccc1[N+](=O)[O-])C1CCS(=O)(=O)C1 (stereo not shown),11.8
17,CC12CCC(=O)N1C(C(=O)NCc1ccccc1F)CS2 (stereo not shown),12.2
18,COc1ccc(N2C(=O)NC(NC(=O)c3ccncc3)(C(F)(F)F)C2=O)cc1 (stereo not shown),-9.46
19,COc1ccc(/C=N\NC(=O)/C(=C\Nc2nccc(C)n2)NC(=O)c2ccccc2)cc1,4.94
20,CCc1cc2c(cc3c(=O)n(CC(=O)NCCCN4CCCCCC4)nc(CC)n32)s1,-18.4
21,Cc1cc(C)c2c(N)c(C(=O)Nc3ncc(C)s3)sc2n1,1.63
22,Cc1ccc(-n2cc(C(=O)c3ccc(F)cc3)nn2)cc1Cl,8.64
